Test results: the supplement of paper PMC11417369
Some of the results follow.

These sequences were tested on PfAP2-HC AP2 domain (GST-tagged) (assay: gcPBM binding intensity (ln(normalized median fluorescence intensity)); higher = stronger DNA binding).
Summary of the method: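 Alexa488 anti-GST antibody, scanned at 488 nm, detected GST-tagged P. falciparum DNA-binding domains that had been expressed in E. coli and incubated for 1 h on an Agilent 4 × 180k array. The array carried primer-extended double-stranded 36-bp intergenic genomic probes and negative controls. Binding intensity is the highest Masliner-normalised natural-log median intensity across replicate spots of either orientation of each probe.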
In the case of “ACCTTAATAAAAAAAAGTACAAACATGTTCAAATTG [XGTACX_site1556]”, the “gcPBM binding intensity (ln)” value is reported as 9.62. “ATCTCTGTATGTTAGACACACATATTTTAATATGTT [CACACA_site4244]” was tested, and the “gcPBM binding intensity (ln)” value was 9.88. In the case of TAAAATTTGTACATAGTGCAATTTTTTTTTTTTTTT, the “gcPBM binding intensity (ln)” value is reported as 9.41. “TCACCATATAAACGTGCACACTACAAAAATATATAA [CACACA_site5413]” was tested, and the “gcPBM binding intensity (ln)” value was 9.67. For “TATTTATTTAAAAATTGTACGTAGGATTATACACTT [XGTACX_site286]”, the “gcPBM binding intensity (ln)” value was 9.49. In the case of “CTTTTATTTTATTTTAGTACGCAACATTCTCTATAT [XGTACX_site7279]”, the “gcPBM binding intensity (ln)” value is reported as 9.76. In the case of “ATATAAATATTATAATGTACATATAATATATTTATT [XGTACX_site5212]”, the “gcPBM binding intensity (ln)” value is reported as 9.57. For “TTTTTTTTTTTTTTCTTACAATTTATTGAACAAATG [XGTACX_negctrl_site515]”, the “gcPBM binding intensity (ln)” value was 9.22. In the case of “AGTGATTATTAATAATGTACATATCTATAAATATAT [XGTACX_site4734]”, the “gcPBM binding intensity (ln)” value is reported as 9.64. “TAGTTTTTTATATATTGTACAAATAATATATGATAT [XGTACX_site4220]” was tested, and the “gcPBM binding intensity (ln)” value was 9.53. “AATAAATAAATATATATATATATATATATATATATA [CACACA_negctrl_site365]” was tested, and the “gcPBM binding intensity (ln)” value was 9.72. For “ACAATTTACACTTAAACACACAAAAAAAAGTTATAT [CACACA_site7056]”, the “gcPBM binding intensity (ln)” value was 9.98. For “TATCAAAATTGTAATTGTACTTGTAAGTGGATATAT [XGTACX_site5949]”, the “gcPBM binding intensity (ln)” value was 9.56. In the case of “TATATATTTCATCCTTGTACACATTTGTGTTTACAT [XGTACX_site1132]”, the “gcPBM binding intensity (ln)” value is reported as 10.2. In the case of “GTATTGCATGAGGACACACACAAAAAAAATATAGAT [CACACA_site6500]”, the “gcPBM binding intensity (ln)” value is reported as 10.1. For “TTTTTTTTTACTTGTTGTACTTTTTCAAGGTATTGT [XGTACX_site7778]”, the “gcPBM binding intensity (ln)” value was 9.72. With “ATATAAAAAAATTGCACACATAAATAAATACAGATA [CACACA_site4806]” the “gcPBM binding intensity (ln)” value was 9.9. “TAAAAATTGAAGCACACACACAAAAGAAATACAATA [CACACA_site1113]” was tested, and the “gcPBM binding intensity (ln)” value was 10.9. In the case of “ATATTTACAAGTAATAGTACAGTTAATTATATAAAA [XGTACX_site4856]”, the “gcPBM binding intensity (ln)” value is reported as 9.62. “ATTATATAGCTAAAAAAAATAAATTAAAAATATTAA [TGCATGCA_negctrl_site505]” was tested, and the “gcPBM binding intensity (ln)” value was 9.29. For “AAGAATGTTATTAGTACACACAATTATTATAGAAAT [CACACA_site7714]”, the “gcPBM binding intensity (ln)” value was 9.87. In the case of “AATGTACAAATACGTACACACATATTTATATTTATA [CACACA_site6833]”, the “gcPBM binding intensity (ln)” value is reported as 9.85. In the case of “CTACCTTTAATATATACACACACATAAAAAAAATAT [CACACA_site8548]”, the “gcPBM binding intensity (ln)” value is reported as 10.5. “ATATATATATATAATAAACACACAAATAGATATAAC [CACACA_site9234]” was tested, and the “gcPBM binding intensity (ln)” value was 10.1. In the case of “TATATATATATATATACATGCATACATATACATACA [TGCATGCA_site897]”, the “gcPBM binding intensity (ln)” value is reported as 9.52. “AGATAAGATATATACACACACATAAATACGTACAAA [CACACA_site6639]” was tested, and the “gcPBM binding intensity (ln)” value was 10.3. With “AATGTACCCACACCCACACACAAACAAATATATATA [CACACA_site2751]” the “gcPBM binding intensity (ln)” value was 10.2. In the case of ATAGGATGCATATGAGTGCATTCTGTGTTGTTATAA, the “gcPBM binding intensity (ln)” value is reported as 9.57. “AGATTAAAATATATACGTACATATTATTAATTAATA [XGTACX_site3487]” was tested, and the “gcPBM binding intensity (ln)” value was 9.59. In the case of “TACTTGTTATTAACATGTACAAAAAAAAAAAAAATT [XGTACX_site1338]”, the “gcPBM binding intensity (ln)” value is reported as 9.4. AAACAATATTCTCAAGTGCAAAAAGAAAAAAGAAAT was tested, and the “gcPBM binding intensity (ln)” value was 9.93. “TTTATTTTTATTTAAAGTACATATCCATTTATTCCT [XGTACX_site1914]” was tested, and the “gcPBM binding intensity (ln)” value was 9.53. In the case of “ATTTTCTTATATATATTTTGTATATATTTTGTACAT [CACACA_negctrl_site1496]”, the “gcPBM binding intensity (ln)” value is reported as 10.2. For “ACCCATATAATATATACACACATATATATATATATA [CACACA_site4731]”, the “gcPBM binding intensity (ln)” value was 10. “TAATGTATTATATTTTGTTTTCTTCCACCAAAAAAA [XGTACX_negctrl_site64]” was tested, and the “gcPBM binding intensity (ln)” value was 9.33. With “AAAAAAAAAATTAAATGTACACACACCTTAAACAAT [XGTACX_site3848]” the “gcPBM binding intensity (ln)” value was 10.7. “CAATTAAAGATATGAACACACATGTGAACTTTCTAT [CACACA_site7796]” was tested, and the “gcPBM binding intensity (ln)” value was 9.78. In the case of “AATTTAATTTTTTCGTGTACTTATATAGGAGGTTTT [XGTACX_site8310]”, the “gcPBM binding intensity (ln)” value is reported as 9.6. For “TTTCTTATCAACCTTTTTTTTTTTTTTTTATTCTTA [TGCATGCA_negctrl_site162]”, the “gcPBM binding intensity (ln)” value was 9.49. With “CCCATATTATAGGTGTGTACATAAAAGTATATATAA [XGTACX_site3629]” the “gcPBM binding intensity (ln)” value was 9.75. “AGAAGAAATATGTAAAAAATTTTATATTCACACACA [GTGCAC_negctrl_site441]” was tested, and the “gcPBM binding intensity (ln)” value was 10.1. For “TTTATATATAATGTTGCATGTCAAATTTGTATATGG [TGCATGCA_site246]”, the “gcPBM binding intensity (ln)” value was 9.55. In the case of “TGTAGACATTAATGTAGTACAATATATATATATATT [XGTACX_site8608]”, the “gcPBM binding intensity (ln)” value is reported as 10.1. With “TGTTCTTATACTAATAGTACTTTTAGGTACTATAAA [XGTACX_site2954]” the “gcPBM binding intensity (ln)” value was 9.53. “CCATAAAAAGGTACATGTACAAAAAGCAAAAATATG [XGTACX_site5543]” was tested, and the “gcPBM binding intensity (ln)” value was 10.2.
